Laboratory results taken from article PMC10668032.
This is one part of the list. At the low end of the ranking the order means little.

The sequences below were run against SIX1-Q177R homeodomain (UniProt Q15475) (assay: universal protein binding microarray). Conditions: Universal all-10-mer PBM (8x60K, AMADID 030236), 300 nM GST-tagged protein, Alexa Fluor 488 anti-GST; buffer, salt, pH and temperature not stated; high values mean tight binding; most listed sequences are background and not binding sites; double strand, one strand shown.

Sequence	binding signal [E-score]
AGGATTCA	-0.123
ACCACACT	0.27
GAGCTCAA	-0.123
GAAATGCA	-0.0778
AAGACGAT	-0.197
AGCTCATA	-0.234
GGGCCGGA	-0.221
GGTACGCA	0.0177
GCGCTGCA	-0.0352
GGAATCTA	-0.0824
CCGCACTC	0.088
AGTCATCG	-0.00985
AGATGGTC	-0.207
CCATTTGC	-0.139
AGGCTTAT	-0.373
AGAACCCC	0.182
AGAAGCAA	-0.0791
GAAGAACA	0.132
AATCGATA	0.0157
GAGAGAGA	-0.0401
CTCCTATC	0.091
GAAATCTC	-0.206
ACCGACTA	-0.0983
GCAGGACC	-0.0485
CGCTCGAG	-0.0966

Sequence	binding signal [E-score]
CGTTGTTA	-0.108
AGTCGGAT	-0.0175
ACTTTACC	0.0271
GCCAGCTA	-0.0382
CGGCTGTA	-0.101
ATGCCTTG	-0.245
GAGGGAAA	-0.272
CCCGTACA	0.128
CACGCTTC	0.24
GCGAATGA	-0.0837
ACGCTGCC	-0.011
AACGACCA	-0.149
AACGCCGC	-0.0363
GACTCATA	-0.137
AGTATAGG	0.0123
GGTCTTTA	-0.114
GTTTGTGA	-0.0745
CAGTGCCC	-0.0721
CGTTCGGC	-0.00579
CCGAACGC	-0.117
AGCGACGA	-0.0849
ACACCAGT	0.48
CAGTTGGG	-0.00456
GGCGTCAA	0.177
AAATTTCA	-0.216

Sequence	binding signal [E-score]
AGGATAAG	-0.0991
GTTTACCA	-0.102
ACGCCGTG	0.185
GAAGGTGA	0.0846
AGTTCAAC	-0.0918
GAGTGTGC	0.184
AGCAGGTA	-0.0666
AAGTGAGC	-0.0874
GATTTCGC	-0.154
AGCTTCGG	-0.0407
CAACTGTA	-0.18
ATGTTCGG	-0.159
ATGGTCCG	-0.316
CTCCAAGC	-0.0987
ATTTTAGC	-0.0948
AAGTATCC	0.107
AGCGTCAT	-0.0766
TCACGGGA	-0.0702
ACCGACCA	0.051
ATTCTGGG	-0.083
CTCTTCAG	-0.143
CGTTAAGC	-0.0682
GATCAAGA	-0.108
GCCGGTAC	-0.0416
ATCATGAT	-0.164

Sequence	binding signal [E-score]
AGTCCGGG	0.0067
CTTCGTTA	-0.369
ACCTTGCT	0.0164
AGATCTAA	-0.129
AGTCCACG	-0.166
GAGAACCA	0.0219
AATATACA	0.18
AACCAAAA	-0.225
ACACATGG	0.185
CATCGGCC	-0.298
AAGCCTAT	-0.063
ACCCACCT	0.13
GGCCCCAA	-0.264
AGAAGTAT	-0.0733
ACTCCGGG	0.29
CACCAGTC	0.294
CTATACGA	-0.0257
CCCGCCCA	0.14
TCGGGCAA	-0.108
ACAAAGCG	-0.047
ACTTTGTC	-0.153
ATACCGCG	0.238
GACCCAAC	-0.0491
AACATTTG	-0.258
GTGAGAGA	-0.0536

Sequence	binding signal [E-score]
CAAGCTAC	-0.215
CGTGACTC	0.207
GAGTCATA	0.184
AGTCAAAA	-0.171
GATTCCGC	-0.0781
AAACCAGA	0.0085
ATGACGTC	-0.254
GCTGGAGA	-0.245
AATTCTCT	-0.322
CCGCGGGA	-0.0491
TATGGGGA	0.0155
GCATGAAC	-0.0706
ATCGCCTC	-0.181
AAAACTGA	-0.0944
CGTCAGCA	-0.00873
CGTGTCTA	0.405
CTAAGGCC	-0.163
AAGACCGC	-0.145
ATGCTTCC	-0.202
ACGGTCCG	-0.185
TGATACCA	0.325
AGCCAATG	-0.262
GACAAACC	-0.144
CGATGGTC	-0.134
CCGACCAG	0.161

Sequence	binding signal [E-score]
AGCTGTAC	-0.152
GACTGTAA	-0.00926
CATCATTC	-0.19
GTGCGCAC	0.175
AACGACGT	-0.175
GCTTTGAA	-0.144
CAGAGGGC	-0.216
GAGGGTAA	0.0979
AGTGGCAG	-0.194
CCAGAAGA	-0.13
ACCGATAT	-0.0234
CTCTCCCA	-0.217
CATTGCCC	0.077
GGGAGTAC	0.259
CTGCGAGA	-0.0889
CAGACAGC	-0.192
CCTTTCCA	-0.131
CTTCACGC	-0.13
GTTTCCGA	0.0664
CAGGGGGG	0.113
CATGTTGC	-0.226
CCACTAAA	-0.0417
CAATATTC	-0.177
CCCGGATC	0.259
CTGTAAAC	-0.25

Sequence	binding signal [E-score]
ATATAACC	0.0694
AGCGATCC	-0.0268
GAGCAGCC	-0.0511
GCTAAAAA	-0.253
GACCACAC	0.269
CGTTATAG	-0.0254
ATAGATCC	-0.101
AGAGTAAA	0.00767
GTGGTTGA	-0.176
GGTACCAA	-0.0441
CAACCAGG	-0.0362
CAAAGCTC	-0.0733
CAAATGTA	-0.15
CGGCCAAG	-0.0728
GGAAGTGA	0.014
GACTTTCC	-0.21
AGTCGAAG	-0.213
GTCAAAGA	-0.11
ATGCCCAT	-0.111
TGGACCCA	-0.14
CGCAATTA	-0.0283
ACCCAAAC	0.091
